Experimental data published in patent US20160090578A1, “ENZYMES CATALYZING THE GLYCOSYLATION OF POLYPHENOLS” (priority 2013, published 2016).

What follows are compounds tested on MgtS (assay: Biotransformation (whole cell catalysis) with E. coli BL21(DE3) pET19b::mgtS and biocatalysis with enzyme).
Source text: The supernatant was applied in TLC analysis.
These samples were used directly for quantitative TLC analysis.

Question: `O=c1cc(-c2ccc(O)cc2)oc2cc(O)cc(O)c12` [apigenin] was tested. Which “Reaction in biotransformation and biocatalysis with MgtS” value (“Reaction” below) did it give?
Answer: Its value is “shown”.

Question: How did the “Reaction” value turn out when `COc1cc([C@@H]2CC(=O)c3c(O)cc(O)cc3O2)ccc1O` [homoeriodytiol] was run?
Answer: Its value is “shown”.

Question: With `O=C(CCc1ccc(O)cc1)c1c(O)cc(O)cc1O` [phloretin] as the compound, how does the “Reaction” value read?
Answer: Its value is “shown”.

Question: For `O=c1c(O)c(-c2ccc(O)c(O)c2)oc2cc(O)cc(O)c12` [Quercetin], which “Reaction” value is on record?
Answer: Its value is “shown”.

Question: How did the “Reaction” value turn out when `O=c1cc(-c2ccc(O)c(O)c2)oc2cc(O)cc(O)c12` [Luteolin] was run?
Answer: Its value is “shown”.

Question: `Cc1cc(=O)oc2cc(O)ccc12` [4-Methylumbelliferone, 7-Hydroxy-4-methylcoumarin] was tested. Which “Reaction” value did it give?
Answer: The value was “shown”.

Question: Which “Reaction” value does the source give for `Cc1cc(=O)c2c(O)cc(O)cc2o1` [noreugenin] here?
Answer: Its value is “shown”.
